The target of one test is His-tagged Ska1 (human) (UniProt Q96BD8). Nature of the test: SEC; Superose 12 column at 4 °C; purified EB1, Ska1 or their equimolar mixture loaded; 200 μl fractions analysed by Western blot; both purified.
The target in test [1] is EB1 (endogenous) (human (endogenous in HeLa)) (UniProt Q15691). In words: co-IP; EB1 immunoprecipitated with mouse monoclonal EB1 antibody from lysates of double thymidine-synchronized mitotic shake-off HeLa cells; Western blot for EB1, Ska1 and Hec1; rabbit and mouse IgG as control.
For the next test, the target named is EB1c–GST (human) (UniProt Q15691). In words: pull-down; purified EB1–GST, EB1c–GST or free GST on glutathione Sepharose beads incubated with lysate of synchronized mitotic HeLa cells; Western blot; in one experiment cells treated with nocodazole followed by MG-132; only the target purified.
Test [2] concerns the target EB1–GST (full length) (human) (UniProt Q15691). The description is as above.
For a further test, the target named is Ska1–GFP (UniProt Q96BD8). In words: co-IP; Ska1–GFP immunoprecipitated with GFP antibody and protein G agarose beads from Ska1–GFP HeLa cell lysate; Western blot for Ska1–GFP, EB1 and Hec1.

Sequences of proteins named here, by UniProt entry; tags and fusion partners are left off.
UniProt O14777: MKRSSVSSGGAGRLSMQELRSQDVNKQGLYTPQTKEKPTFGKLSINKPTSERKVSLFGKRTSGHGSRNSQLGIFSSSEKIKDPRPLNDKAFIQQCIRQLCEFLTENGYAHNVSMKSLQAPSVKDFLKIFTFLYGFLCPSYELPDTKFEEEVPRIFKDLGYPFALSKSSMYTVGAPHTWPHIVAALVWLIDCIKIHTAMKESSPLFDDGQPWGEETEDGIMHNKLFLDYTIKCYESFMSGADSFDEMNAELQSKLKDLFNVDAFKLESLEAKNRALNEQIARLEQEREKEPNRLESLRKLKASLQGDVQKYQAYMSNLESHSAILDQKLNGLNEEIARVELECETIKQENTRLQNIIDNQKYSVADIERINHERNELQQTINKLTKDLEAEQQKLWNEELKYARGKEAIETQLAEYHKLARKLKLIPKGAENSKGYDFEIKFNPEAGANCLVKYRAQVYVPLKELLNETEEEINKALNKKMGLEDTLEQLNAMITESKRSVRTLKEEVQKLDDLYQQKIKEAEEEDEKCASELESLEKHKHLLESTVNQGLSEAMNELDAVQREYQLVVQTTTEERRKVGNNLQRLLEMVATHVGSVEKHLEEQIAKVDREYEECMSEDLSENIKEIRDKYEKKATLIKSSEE

From PMC4894954 come the findings set out here.

Results are given in words; binding and its absence hold for the method and conditions named. For some assays here: Binding seen in cells or lysates may run through a third protein. Some results given as binding are weak or reduced against the parent protein; the word gives no strength.

In the case of “His-tagged Ska1 (from UniProt Q96BD8 1-255)”, the binding entry with His-tagged Ska1 (human) was “no binding”.
Consider “Hec1 (Ndc80) (endogenous) (from UniProt O14777 1-642)”, for which the binding entry (in test [1]; with EB1c–GST (human); in test [2]) was “binds” each time.
As to “Ska1 (endogenous) (from UniProt Q96BD8 1-255)”, the binding result (in test [1]; with EB1c–GST (human); in test [2]) was “binds” throughout.
Turning to “EB1 (endogenous) (from UniProt Q15691 1-268)”, the binding result with Ska1–GFP is “binds”.
